Measurements as given in the BET-seq Pho4 binding data (Le et al. 2018).
The other results are listed elsewhere or left out. Values were computed here from the reads of four pooled replicates and scatter widely.

Target: T1, Pho4 (S. cerevisiae) (UniProt P07270)
T1 sequence: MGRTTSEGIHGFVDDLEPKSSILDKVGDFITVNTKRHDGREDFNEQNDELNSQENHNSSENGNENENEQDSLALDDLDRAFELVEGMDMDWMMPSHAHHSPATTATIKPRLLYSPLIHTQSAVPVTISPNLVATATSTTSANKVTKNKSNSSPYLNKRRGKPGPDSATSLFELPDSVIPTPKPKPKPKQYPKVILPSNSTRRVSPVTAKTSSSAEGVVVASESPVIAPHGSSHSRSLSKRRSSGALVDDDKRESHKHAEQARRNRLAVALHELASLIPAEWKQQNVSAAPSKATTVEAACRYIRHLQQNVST
Assay: relative binding free energy (BET-seq); higher = weaker binding
Settings: reference: library average

Sequence	relative binding free energy
ATAGTCACGTGGATAA	0.02 kcal/mol
TGGGCCACGTGCGGCG	-0.24 kcal/mol
CTGTCCACGTGGGGTT	-0.23 kcal/mol
AAGAGCACGTGAAGGT	0.08 kcal/mol
GGTTTCACGTGTGGGG	0.45 kcal/mol
GCTATCACGTGGTAGT	0.14 kcal/mol
GTGTGCACGTGTACGA	0.1 kcal/mol
CTGGTCACGTGGGGTT	-0.06 kcal/mol
ATTCTCACGTGGTGTG	0.09 kcal/mol
CGTTTCACGTGCGTAG	0.17 kcal/mol
GAGGACACGTGAATGG	0.28 kcal/mol
AAAATCACGTGTGTGT	0.16 kcal/mol
GACGGCACGTGGCTGT	0.04 kcal/mol
TTCGTCACGTGTTATG	0.21 kcal/mol
TTATGCACGTGAGATG	0.16 kcal/mol
GTAAACACGTGGGGGG	-0.04 kcal/mol
TTGTCCACGTGTTCTG	0.05 kcal/mol
TCTGACACGTGAGGTT	0.23 kcal/mol
GTAGGCACGTGTATTC	0.31 kcal/mol
TTGGGCACGTGTAAGA	0.05 kcal/mol
AGCGGCACGTGTGTTA	0 kcal/mol
GTGAGCACGTGCCGTG	-0.13 kcal/mol
TATGTCACGTGTCGAT	0.06 kcal/mol
TAAATCACGTGTGGTC	0.27 kcal/mol
CTTTTCACGTGTTTTT	0.27 kcal/mol
TATGGCACGTGGGATG	-0.13 kcal/mol

Sequence	relative binding free energy
TTTCGCACGTGTGTTC	0.07 kcal/mol
GCTTGCACGTGGTGTT	-0.01 kcal/mol
GGGGGCACGTGTAGCG	-0.05 kcal/mol
GAAAGCACGTGTAGGG	0 kcal/mol
AAGATCACGTGCGTGT	0.15 kcal/mol
TTTTACACGTGCATGA	0.05 kcal/mol
TCTACCACGTGGGGTT	-0.15 kcal/mol
TTGTACACGTGTAATT	0.12 kcal/mol
TGGATCACGTGGGCAG	0.03 kcal/mol
TACGTCACGTGGGGGG	0.01 kcal/mol
ATGTACACGTGGAATG	0.18 kcal/mol
CATAGCACGTGGGGGA	-0.28 kcal/mol
GAGGCCACGTGGTAGG	-0.09 kcal/mol
GTGGTCACGTGCGACG	0.15 kcal/mol
GTAGGCACGTGGAGGT	-0.11 kcal/mol
TTGGGCACGTGCGTAA	-0.15 kcal/mol
AAGTCCACGTGTTTTG	0.17 kcal/mol
TTTATCACGTGCATGT	0.14 kcal/mol
TTGGCCACGTGTGCGT	-0.1 kcal/mol
AGGCTCACGTGTTTAT	0.14 kcal/mol
TTTTTCACGTGTTGCG	0.23 kcal/mol
GGATACACGTGCTTTT	0.12 kcal/mol
TTCTGCACGTGGTCGT	-0.13 kcal/mol
ATCTTCACGTGTTGGT	0.19 kcal/mol
ATAGACACGTGGGTAT	-0.06 kcal/mol
GGTTTCACGTGTCTAG	0.29 kcal/mol

Sequence	relative binding free energy
GTGCACACGTGAGGGA	0.21 kcal/mol
GTTTGCACGTGTGTTA	0.11 kcal/mol
TTCTTCACGTGGGTTG	0.12 kcal/mol
AAAGGCACGTGTCGGG	-0.07 kcal/mol
GTTCTCACGTGTATGT	0.25 kcal/mol
CAGGGCACGTGTCGGT	-0.02 kcal/mol
GGAAGCACGTGTGAGT	0.1 kcal/mol
AGAATCACGTGTGCTT	0.25 kcal/mol
TTAATCACGTGGGGGA	-0.01 kcal/mol
TTCTTCACGTGTGTGG	0.31 kcal/mol
AGGTGCACGTGTACGT	0.05 kcal/mol
CGTATCACGTGGGTGC	0.02 kcal/mol
TATGACACGTGTCTTT	0.11 kcal/mol
ATTGACACGTGTAGGA	-0.02 kcal/mol
TGTACCACGTGGTTGT	-0.06 kcal/mol
AAATACACGTGTGGGT	0.09 kcal/mol
CGTGGCACGTGCTGGA	-0.19 kcal/mol
TTCGTCACGTGATAGT	-0.02 kcal/mol
TTTGTCACGTGGTCAG	-0.08 kcal/mol
AGAGTCACGTGGTTAT	0 kcal/mol
GTGCCCACGTGTGTTT	0.02 kcal/mol
GAAAGCACGTGGGAGT	-0.1 kcal/mol
CTTGGCACGTGTGCAT	-0.07 kcal/mol
GAGTGCACGTGAAGGC	0.28 kcal/mol
TTGATCACGTGCGAGG	0.23 kcal/mol
TGGTTCACGTGCAGCT	0.23 kcal/mol

Sequence	relative binding free energy
AAGGTCACGTGGGGAT	0.1 kcal/mol
TAGAGCACGTGTGTTA	-0.06 kcal/mol
TGCTTCACGTGTAGGA	0.24 kcal/mol
TATGTCACGTGGGATG	0.02 kcal/mol
AGGTTCACGTGTGGGA	0.3 kcal/mol
TATGACACGTGGTAGT	-0.16 kcal/mol
GGGGACACGTGTAGCA	0.13 kcal/mol
TGGCACACGTGTGGTT	0.01 kcal/mol
TTTTGCACGTGATGGG	0.11 kcal/mol
GCTTTCACGTGGTTGT	0.35 kcal/mol
TTTCACACGTGTTAAG	0.19 kcal/mol
AGGCTCACGTGGCGTG	0.15 kcal/mol
TGTTACACGTGTTCGA	0.1 kcal/mol
GTCGTCACGTGTGGTA	0.14 kcal/mol
GTTTGCACGTGTGGAG	0.14 kcal/mol
TGGTGCACGTGTCCGA	-0.03 kcal/mol
GTGGACACGTGACATT	0.32 kcal/mol
TCTTGCACGTGGATAT	0.02 kcal/mol
TGCAACACGTGAAGTG	0.35 kcal/mol
CTCGCCACGTGTGGGG	-0.06 kcal/mol
TGTGGCACGTGTACTG	-0.06 kcal/mol
TCGTGCACGTGATAGT	0.07 kcal/mol
TCTGTCACGTGCGTGT	0.03 kcal/mol
GGGGGCACGTGTCGAC	-0.01 kcal/mol
GTTTTCACGTGTAGAG	0.29 kcal/mol
GGAGTCACGTGGGCTG	-0.02 kcal/mol

Sequence	relative binding free energy
TAAAGCACGTGTTTAT	-0.2 kcal/mol
TAGCTCACGTGTAGGA	0.14 kcal/mol
CTTTTCACGTGTCATT	0.23 kcal/mol
GTTCCCACGTGTTGTT	0.02 kcal/mol
TTACTCACGTGTGTGG	0.15 kcal/mol
TTAGTCACGTGTACTT	0.12 kcal/mol
GGGGTCACGTGACGGA	0.39 kcal/mol
GAGTGCACGTGGTACG	0 kcal/mol
ACTGGCACGTGGTAGG	-0.21 kcal/mol
TTTTTCACGTGAAGCT	0.45 kcal/mol
TTGGCCACGTGGTATT	-0.06 kcal/mol
CTTAGCACGTGGTATT	-0.09 kcal/mol
TAGTCCACGTGTGTGG	0.1 kcal/mol
GTCTACACGTGGTGTG	0.02 kcal/mol
ACGTTCACGTGTAGGG	0.31 kcal/mol
TACCTCACGTGTGTGT	0.29 kcal/mol
GTGGGCACGTGGGAAT	-0.02 kcal/mol
TTGGTCACGTGCTAAG	-0.01 kcal/mol
TTCTACACGTGGCTGG	0.09 kcal/mol
CGGTACACGTGTTGAT	0.01 kcal/mol
TTTGACACGTGGTCTA	-0.1 kcal/mol
CGCTTCACGTGGGTTA	0.08 kcal/mol
CTTTACACGTGTTTTA	0.14 kcal/mol
CGTGTCACGTGGCGCG	-0.01 kcal/mol
GGATACACGTGGAAGT	0.24 kcal/mol
TCGTGCACGTGCGTGT	-0.05 kcal/mol

Sequence	relative binding free energy
GGGGGCACGTGGTCTG	-0.16 kcal/mol
TACTGCACGTGGAGTG	-0.14 kcal/mol
TGATGCACGTGCGATA	0.05 kcal/mol
TCAGTCACGTGGTTTA	0.02 kcal/mol
AGGGCCACGTGTGATT	-0.02 kcal/mol
TTTGACACGTGTAATC	0.24 kcal/mol
TCGGTCACGTGCGTTA	0.13 kcal/mol
AGTTGCACGTGGTACT	-0.19 kcal/mol
ATGGACACGTGTTACA	0.12 kcal/mol
TATGTCACGTGTAGTT	0.19 kcal/mol
AGTGACACGTGAAAGG	0.2 kcal/mol
GACGGCACGTGGTTAT	-0.08 kcal/mol
TTATACACGTGGTATG	-0.19 kcal/mol
CTAGGCACGTGCTGTA	-0.08 kcal/mol
TGGAGCACGTGAAAGG	0.18 kcal/mol
TTCAACACGTGGTTGG	-0.04 kcal/mol
CTAGGCACGTGTTATT	-0.03 kcal/mol
GAGGTCACGTGTTGTT	0.21 kcal/mol
GAATGCACGTGGGAAG	0 kcal/mol
GGGGACACGTGCGTTA	-0.08 kcal/mol
GTGAGCACGTGTGTCT	-0.11 kcal/mol
GGTACCACGTGGTGTA	-0.1 kcal/mol
TAAGGCACGTGATGTC	0.16 kcal/mol
GTTGTCACGTGGGGAC	0.06 kcal/mol
TAGAGCACGTGGCAGG	-0.28 kcal/mol
TAAGACACGTGTTTGT	-0.02 kcal/mol

Sequence	relative binding free energy
CGTATCACGTGATGGA	0.27 kcal/mol
ACGTGCACGTGAGATG	0.06 kcal/mol
CAATTCACGTGATTTG	0.36 kcal/mol
TGCGTCACGTGAGTTA	0.15 kcal/mol
TGGATCACGTGTGTGA	0.26 kcal/mol
GGATGCACGTGCGTCT	0.13 kcal/mol
ATAAACACGTGATAGT	0.16 kcal/mol
TTAGCCACGTGGGATG	-0.18 kcal/mol
GTGGCCACGTGGAGGG	-0.08 kcal/mol
GCCGGCACGTGTGGGT	-0.08 kcal/mol
TGTAACACGTGAGGGT	0.24 kcal/mol
AGCGGCACGTGTTAAT	0.03 kcal/mol
TTTGTCACGTGGTCCG	0.04 kcal/mol
TGTTTCACGTGGGGCA	0.17 kcal/mol
GGGTGCACGTGGTGCA	-0.11 kcal/mol
GGTCACACGTGGTCTT	0.13 kcal/mol
CGTTGCACGTGAAGGT	0.27 kcal/mol
GTATTCACGTGGAAAG	0.23 kcal/mol
GAGATCACGTGGCTGT	0.18 kcal/mol
GGGGGCACGTGCCATG	-0.18 kcal/mol
TGTGGCACGTGGGCAT	-0.24 kcal/mol
AATGGCACGTGGGGTA	-0.2 kcal/mol
AGGTACACGTGTGCTG	0.08 kcal/mol
GATTACACGTGTAATA	0.25 kcal/mol
CAGTGCACGTGGAGGG	0.03 kcal/mol
TTATCCACGTGTTGTG	-0.08 kcal/mol

Sequence	relative binding free energy
TTGTTCACGTGTGGTC	0.31 kcal/mol
ATTTACACGTGTGTGG	0.06 kcal/mol
TGTTACACGTGAGTAC	0.21 kcal/mol
ATGTACACGTGAGGTA	0.18 kcal/mol
TTGAGCACGTGAGGGC	0.29 kcal/mol
GTTTACACGTGTGCTT	0.22 kcal/mol
GGCTACACGTGGGGCT	0.02 kcal/mol
GGAGACACGTGTTGCG	0.02 kcal/mol
TTTTTCACGTGCTACT	0.26 kcal/mol
TAATTCACGTGATTTG	0.27 kcal/mol
GTGTGCACGTGTGCCT	-0.04 kcal/mol
GAGATCACGTGGGTAG	0.05 kcal/mol
TGTTACACGTGATAGG	0.26 kcal/mol
TAGTTCACGTGGTGTG	0.21 kcal/mol
GATTTCACGTGGGTGC	0.19 kcal/mol
ATGGTCACGTGACGTT	0.29 kcal/mol
GCTTGCACGTGTATTG	-0.01 kcal/mol
TGCCTCACGTGGGTAG	0.16 kcal/mol
GAGGGCACGTGTGTAG	-0.13 kcal/mol
GTTTTCACGTGGCAGT	0.22 kcal/mol
CGGGGCACGTGGGAGC	-0.32 kcal/mol
GGGATCACGTGTTGAG	0.21 kcal/mol
TGATGCACGTGCTGTG	0 kcal/mol
TTTGTCACGTGATAAT	0.21 kcal/mol
AGAGTCACGTGCTGTT	-0.03 kcal/mol
AGGCGCACGTGATTGT	0.08 kcal/mol

Sequence	relative binding free energy
GAGTACACGTGGGATA	-0.03 kcal/mol
TGTATCACGTGGTATA	0.14 kcal/mol
CATGGCACGTGCTTGT	-0.06 kcal/mol
AGTCTCACGTGGGGAT	-0.03 kcal/mol
CTTGTCACGTGAGGCG	0.19 kcal/mol
GGGATCACGTGTTGAA	0.22 kcal/mol
TAGTGCACGTGAATTA	0.38 kcal/mol
CTCGTCACGTGAGGGT	0.23 kcal/mol
TGTTACACGTGTTGAA	0 kcal/mol
AGCGTCACGTGGATGA	0.23 kcal/mol
TGGGCCACGTGTATAG	0.03 kcal/mol
GATGCCACGTGGGGGG	-0.19 kcal/mol
TGTAGCACGTGCAGGA	-0.12 kcal/mol
TCGGTCACGTGCGGCG	0.23 kcal/mol
TGTGACACGTGTGTGT	0.02 kcal/mol
GTGAGCACGTGTCGGA	-0.13 kcal/mol
TGATACACGTGCTTAG	0.11 kcal/mol
CGGGACACGTGGGTGT	-0.17 kcal/mol
GTGGCCACGTGAGGTG	0.15 kcal/mol
AGATGCACGTGGTAGT	-0.09 kcal/mol
AAGGACACGTGAATGT	0.35 kcal/mol
TGGGGCACGTGCACTT	-0.19 kcal/mol
